Laboratory results published in the supplement of paper PMC11417369.
± gives the standard deviation of the averaged measurements. The list shows a part of the results.

System: PfAP2-LT AP2 domain (GST-tagged)
Assay: gcPBM binding intensity (ln(normalized median fluorescence intensity)); higher = stronger DNA binding
Outline: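 Binding intensity is defined as the maximum Masliner-normalised natural-log median intensity across replicate spots for either probe orientation. It was measured on an Agilent 4 × 180k array of primer-extended double-stranded 36-bp intergenic genomic probes and negative controls, to which GST-tagged P. falciparum DNA-binding domains made in E. coli were applied for 1 h in 1× PBS with 1% milk, 0.2 mg/ml BSA, 0.5% salmon testes DNA and 0.03% Triton X-100. Detection was by Alexa488 anti-GST antibody and scanning at 488 nm.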

Point of comparison: “ATATATATATATATATGTACATATTTATATTGTAAA [XGTACX_site8878]”, “gcPBM binding intensity (ln)” value 9.39 ± 0.028. Against it:
- ATCATATCCACCAAATGAATAATATAAAATAATATA [XGTACX_negctrl_site193] — lower, 8.68 ± 0.43
- AAATAACATAATAAGGGTACATTAATTTCGATAATG [XGTACX_site835] — lower, 8.77 ± 0.4
- TATTTTGTCATAGAACGTACTTATAAATATTTTTTT [XGTACX_site8424] — lower, 8.54 ± 0.45
- ATAGAAGCTGTTGACGAAGAAAAAAAAAAAAAAAAA [CACACA_negctrl_site110] — lower, 8.52 ± 0.57
- AGAAAAAAAAAAAAAAAACACACGGTACATCCAAAG [CACACA_site124] — lower, 8.96 ± 0.39
- ATCAAATTATAATCATGTACAAATAAAAAAAAAAAA [XGTACX_site313] — lower, 8.69 ± 0.5
- AAATATCTACAAATATGTACATATTTTTTTTGGCTT [XGTACX_site6301] — lower, 8.76 ± 0.48
- AGAAAGTAAAGCTGTTGTACTATTATATATATTTTA [XGTACX_site8090] — lower, 8.74 ± 0.43
- GTAATACCCAAACACACACACATACCCATATATATA [CACACA_site5510] — higher, 10.1 ± 0.29
- TATAATATGTATATCTGTACATATTTTAAATCTAAT [XGTACX_site2426] — lower, 8.49 ± 0.52
- AAGTACAATTCATGTATGCACTTTATTATATTTTAT — lower, 8.79 ± 0.45
- AAGATAAAATAATAAAGTACACATATAAATTGAAAA [XGTACX_site2113] — within error, 8.89 ± 0.55
- TTTCTTTTTAAATAATAATGTATAATAAAAAGTTCA [TGCATGCA_negctrl_site195] — lower, 8 ± 0.37
- TTTGTTTGATATATGTGTACATATATATATTATGCT [XGTACX_site3522] — lower, 8.99 ± 0.35
- TATTATAGTATATATTGTACATATATATATTTTTTA [XGTACX_site8831] — lower, 8.62 ± 0.41
- ATAATAATATATAGTACACACAAAAATGGAAGTAAA [CACACA_site3318] — within error, 9.24 ± 0.54
- TGTTATGAGAACAGCACACAAGCTACATCATATATA [CACACA_site870] — lower, 8.82 ± 0.4
- TATATATAAGATTGATGTACGATTTTGGTGTCTTAT [XGTACX_site2611] — lower, 8.82 ± 0.47
- AACATATGATTAAACTGTACAAGAAAAATATAACAT [XGTACX_site4477] — within error, 9.07 ± 0.48
- GAGAGGATCATCAATTCACACACATAAAAATGAAGT [CACACA_site9010] — within error, 9.33 ± 0.45
- TAAAAATATTATAATGCATGCAAAATATTGTTATAA [TGCATGCA_site244] — lower, 8.73 ± 0.38
- ATAGTTTTTCCAATTCAAAAAAAAAAAAAAAAAAAA [CACACA_negctrl_site969] — lower, 7.96 ± 0.5
- AAAGTATAAATAAATACACACATATTTATTTATATA [CACACA_site7375] — lower, 8.89 ± 0.42
- AGAAAAAAATAATGTACACACACATATATGTTTATA [CACACA_site7946] — within error, 9.14 ± 0.36
- ATATACAAAGGATTAACACACATATTATTATATATA [CACACA_site1880] — within error, 8.91 ± 0.49
- TATTTTTTAAAAAAATGTCATAAAATTTCTTTTTTC [XGTACX_negctrl_site271] — lower, 8.04 ± 0.56
- GTAATTTTATATGGTTGTACATATATATATATATAT [XGTACX_site6659] — higher, 9.61 ± 0.042
- ATATATATATATATGTGTACTTATATATTTAAAAAA [XGTACX_site1761] — lower, 9.105 ± 0.064
- TTATACCTGATTTAGGTGCTATAAATTTGTGTTTTT — lower, 8.71 ± 0.42
- ATATATATATATATATATATTTATATGTGAAAACCC [CACACA_negctrl_site845] — within error, 9.4 ± 0.085
- CGCATAAAGACAAGAACACACATATATATTGTAGTA [CACACA_site5938] — within error, 9.01 ± 0.39
- CAACAACAAAAAAAAAAATAATAATAATAAAAAATA [TGCATGCA_negctrl_site271] — lower, 8.71 ± 0.5
- TTCCTATTTCCTATGTGTACTTATAAATAAGTGTCT [XGTACX_site3725] — within error, 8.88 ± 0.54
- GAAATTATAAATTGGACACACACATAAAAAATATGT [CACACA_site7957] — within error, 9.31 ± 0.38
- TCCGCATGTACATGGGTGCACATAACACCCATTTAA [GTGCAC_site9881] — lower, 8.66 ± 0.43
- TAAATGTCTGTTAATGCACACGATATGTCTATATAT [CACACA_site2352] — within error, 9.11 ± 0.36
- CTTTCTATATAAAATCGTACATATATAATATTATAT [XGTACX_site5807] — lower, 8.62 ± 0.4
- TATATTAAGAAACACACACACATATATATATATATA [CACACA_site1609] — higher, 9.82 ± 0.23
- ATTTTTACATAGGAAGCATGCATATTTTAAAAATAA [TGCATGCA_site1046] — lower, 8.52 ± 0.4
- CTAACACTAATTTTTTGTACACAATATGTAAATAAA [XGTACX_site6424] — lower, 8.64 ± 0.4
- CATGTGTTCTATATTTATGTCTAACTTTTTAATTAA [CACACA_negctrl_site904] — lower, 8.64 ± 0.46
- TTATTTCTGAATATTTTTTTTTTTTCTTCTTTTTTA [CACACA_negctrl_site815] — lower, 8.21 ± 0.57
- TAATTTTTTAAATTTAAACACACATTTTGTATATGT [CACACA_site8479] — within error, 8.98 ± 0.47
- TATATATATATATATTGTACGAACCTTTTTTTTTTT [XGTACX_site4169] — within error, 9.28 ± 0.56
- TGATACGTATTTATTTCACACACGTTAAAAAAATAA [CACACA_site3914] — lower, 8.74 ± 0.34
- TATAAATTTTTATTTACATGCAGTTATTATTTCCAT [TGCATGCA_site41] — lower, 8.87 ± 0.41
- AATAATAAATAAAAATGTACACATACATTTCTATCC [XGTACX_site7057] — lower, 8.71 ± 0.46
- TTTTTGTTACCTATTGTGCACTTCATATAAATTAAA — lower, 8.79 ± 0.45
- TATTAAAAGGTTAAAGCATGCATACATATATATGTT [TGCATGCA_site865] — lower, 8.79 ± 0.41
- TAATGTAATACATATTGTACACATACATATATATTT [XGTACX_site7531] — lower, 8.77 ± 0.47
- ATATATAATCATCACACATGCAGCCCTGATGAAAAA [TGCATGCA_site687] — lower, 9.02 ± 0.25
- GGGTATACCAATATAACACACATATATCTATAATAT [CACACA_site6348] — within error, 9.15 ± 0.46
- TTGAATATGGTTACATGTACGTATCAATATTTTTTA [XGTACX_site4247] — lower, 8.56 ± 0.42
- AATTGTGCATTATATTGTACACGTGTTGTATATATT [XGTACX_site975] — within error, 9.18 ± 0.33
- TATATAAAACATGGGTGTACCAACATAAATCATATA [XGTACX_site2320] — lower, 8.87 ± 0.49
- ATTTTGTTATGAAACACACACATATAAATATAAATA [CACACA_site7679] — lower, 8.91 ± 0.33
- AATACACGCAGACACACACACAAAAAAAAAAAAAAA [CACACA_site6384] — within error, 9.53 ± 0.61
- ATATATATATATAGTTGTACTTAATTTTATATGTTA [XGTACX_site5256] — within error, 9.28 ± 0.33
- TGTTGTATATCTCTATATAGCTATATTGTATATATA [TGCATGCA_negctrl_site323] — within error, 8.96 ± 0.42
- TATATTATTTATTAGACACACATTATTAAAATATTT [CACACA_site4737] — lower, 8.58 ± 0.44
- TTTTACAAATATTACTGTACACATTTTCATATAATT [XGTACX_site17] — lower, 8.81 ± 0.53
- AAACTTATAAAAAGTAGTACCATAAAATAATACATA [XGTACX_site6523] — lower, 8.78 ± 0.49
- CCTTGATATATATAAAGTACATATATATATATATAT [XGTACX_site4325] — within error, 9.23 ± 0.55
- GTGAAATTATTTCCGTGTACACATAAATATATATTT [XGTACX_site3989] — lower, 8.91 ± 0.42
- TATACATTATTATTATGTACTTAAATATATATTATA [XGTACX_site5173] — lower, 8.53 ± 0.31
- ATTAACACATTTAAGTGTACATATATAAATATATAT [XGTACX_site7098] — lower, 8.76 ± 0.45
- GAAACAAAATTATTTTGTACATATGACTGTAGATAT [XGTACX_site972] — lower, 8.87 ± 0.36
- GGAACGTATATTTTCACACACTCTCAAAAGTACAAG [CACACA_site2301] — within error, 9.05 ± 0.42
- ATATAACTCAAGGGCACACATATACCTTTCCTTTTT [CACACA_site4390] — within error, 9.07 ± 0.42
- TGTGCACGTTCTGTGACACACATTTAAATGTGCTTA [CACACA_site176] — within error, 8.96 ± 0.45
- AAAGAAGGATAATAATGTACAAGCAAAAAAATAAAA [XGTACX_site466] — within error, 8.96 ± 0.53
- AATATGTGAATATAATCACACACAATACGGAAACAC [CACACA_site8875] — higher, 9.84 ± 0.29
- AAATAATTATTTATCACACATATGTATTTATATATA [CACACA_site4589] — lower, 8.8 ± 0.4
- CTTTTTTTAATGATAACACACATGTTGTGCATAGAC [CACACA_site3270] — within error, 9.04 ± 0.42
- TTAGTTTCCCAAATATGTACATAAATATAAATCATA [XGTACX_site2746] — lower, 8.52 ± 0.38
- ATTTCAACAAATATAACACACAATGGATAAGAATAA [CACACA_site1974] — within error, 8.96 ± 0.43
- GTAAGAACACTTTTGTGGTTACTTAAAAGTGTATAT [GTGCAC_negctrl_site422] — lower, 8.68 ± 0.39
- TTATTATTTTTTAACACACACATATATATTATATCT [CACACA_site4906] — within error, 9.17 ± 0.47
- TGCTTATATGTTGTTACACACTAAAATAGTTAGATA [CACACA_site1277] — lower, 8.68 ± 0.33
- AATACAGTTAGAGAAAGTACACAACTAATATACATA [XGTACX_site8814] — within error, 8.88 ± 0.57
- AACATATATATAATATGTACATAATATATATAAATG [XGTACX_site1161] — lower, 8.91 ± 0.43
- ACATATATTTCAAAGTGTACGCACAATTTTTTTTAC [XGTACX_site6166] — lower, 8.87 ± 0.45
- AGTGTTAAAAATGAGGGTACATATAAAATACAGTTC [XGTACX_site457] — within error, 8.98 ± 0.4
- TAATCATTTTAGCTTACACACAAAATTTGGTTATAA [CACACA_site5604] — lower, 8.78 ± 0.35
- ACAGGATTGGTTCAAACACACATATTATATGACTAT [CACACA_site4536] — within error, 9.04 ± 0.39
- TATTTTAATTAATATACACACGCTTATATATATATA [CACACA_site7909] — lower, 8.84 ± 0.45
- TATTATATATATAACTGTACGTTTATAATATAAAAA [XGTACX_site3778] — lower, 8.32 ± 0.38
- TTTCTTTTTTTTTTTTGTACATATTTTAATTATTTT [XGTACX_site8676] — lower, 8.66 ± 0.67
